Experimental data from the supplement of paper PMC8728848.
This is one part of the list.

Tests used:
Experiment in all cases: glycan array binding signal (z-score within array); higher = stronger binding
Conditions in all cases: glycan notation: IUPAC condensed, linker removed
[1] = target: Fuc(a1-2)Gal
How it was run: (§1)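 The binding signal is a Z-score computed within each array and averaged over linkers. Arrays of the same protein sequence at different concentrations or buffers were also averaged together. Data originate from 3228 arrays in the Consortium for Functional Glycomics database, kept only where the protein sequence was available.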

[2] = target: Fuc(a1-2)Gal(b1-3)GalNAc
How it was run: as §1

[3] = target: Fuc(a1-2)Gal(b1-3)GalNAc(b1-3)Gal
How it was run: as §1

[4] = target: Fuc(a1-2)Gal(b1-3)GalNAc(b1-3)Gal(a1-4)Gal(b1-4)Glc
How it was run: as §1

[5] = target: Fuc(a1-2)Gal(b1-3)GalNAc(b1-3)Gal(b1-4)Glc
How it was run: as §1

[6] = target: Fuc(a1-2)Gal(b1-3)GalNAc(b1-4)[Neu5Ac(a2-3)]Gal(b1-4)Glc
How it was run: as §1

[7] = target: Fuc(a1-2)Gal(b1-3)[Fuc(a1-4)]GlcNAc
How it was run: as §1

[8] = target: Fuc(a1-2)Gal(b1-4)Glc
How it was run: as §1

[9] = target: Fuc(a1-2)Gal(b1-4)GlcNAc
How it was run: as §1

[10] = target: Fuc(a1-2)Gal(b1-4)GlcNAc(b1-3)Gal(b1-4)GlcNAc
How it was run: as §1

[11] = target: Fuc(a1-2)Gal(b1-4)GlcNAc(b1-3)Gal(b1-4)GlcNAc(b1-3)Gal(b1-4)GlcNAc
How it was run: as §1

[12] = target: Fuc(a1-2)Gal(b1-4)[Fuc(a1-3)]GalNAc(b1-3)Gal(b1-4)[Fuc(a1-3)]GlcNAc
How it was run: as §1

[13] = target: Fuc(a1-2)Gal(b1-4)[Fuc(a1-3)]GalNAc(b1-3)Gal(b1-4)[Fuc(a1-3)]GlcNAc(b1-3)Gal(b1-4)[Fuc(a1-3)]GalNAc
How it was run: as §1

[14] = target: Fuc(a1-2)Gal(b1-4)[Fuc(a1-3)]GlcNAc
How it was run: as §1

[15] = target: Fuc(a1-2)GlcNAc
How it was run: as §1

[16] = target: Fuc(a1-2)[Gal(a1-3)]Gal
How it was run: as §1

[17] = target: Fuc(a1-2)[Gal(a1-3)]Gal(b1-3)GlcNAc
How it was run: as §1

[18] = target: Fuc(a1-2)[Gal(a1-3)]Gal(b1-4)Glc
How it was run: as §1

[19] = target: Fuc(a1-2)[Gal(a1-3)]Gal(b1-4)GlcNAc
How it was run: as §1

[20] = target: Fuc(a1-2)[Gal(a1-3)]Gal(b1-4)[Fuc(a1-3)]GlcNAc
How it was run: as §1

[21] = target: Fuc(a1-2)[Gal(a1-4)]Gal(b1-4)GalNAc
How it was run: as §1

[22] = target: Fuc(a1-2)[GalNAc(a1-3)]Gal
How it was run: as §1

[23] = target: Fuc(a1-2)[GalNAc(a1-3)]Gal(b1-3)GlcNAc
How it was run: as §1

[24] = target: Fuc(a1-2)[GalNAc(a1-3)]Gal(b1-4)Glc
How it was run: as §1

[25] = target: Fuc(a1-2)[GalNAc(a1-3)]Gal(b1-4)GlcNAc
How it was run: as §1

[26] = target: Fuc(a1-2)[GalNAc(a1-3)]Gal(b1-4)[Fuc(a1-3)]GlcNAc
How it was run: as §1

[27] = target: Fuc(a1-2)[GalNAc(a1-4)]Gal(b1-4)GlcNAc
How it was run: as §1

[28] = target: Fuc(a1-3)GlcNAc
How it was run: as §1

[29] = target: Fuc(a1-3)[Gal(b1-4)]GlcNAc
How it was run: as §1

[30] = target: Fuc(a1-3)[Gal(b1-4)]GlcNAc(b1-4)Gal(b1-4)[Fuc(a1-3)]GlcNAc
How it was run: as §1

[31] = target: Fuc(a1-3)[Gal(b1-4)]GlcNAc(b1-4)Gal(b1-4)[Fuc(a1-3)]GlcNAc(b1-4)Gal(b1-4)[Fuc(a1-3)]GlcNAc
How it was run: as §1

[32] = target: Fuc(a1-3)[Gal3S(b1-4)]GlcNAc
How it was run: as §1

[33] = target: Fuc(a1-3)[GalNAc(b1-4)]Gal(b1-4)GlcNAc
How it was run: as §1

[34] = target: Fuc(a1-4)GlcNAc
How it was run: as §1

[35] = target: Fuc(b1-3)GlcNAc
How it was run: as §1

[36] = target: Gal(a1-2)Gal
How it was run: as §1

[37] = target: Gal(a1-3)Gal
How it was run: as §1

[38] = target: Gal(a1-3)Gal(b1-3)Glc
How it was run: as §1

[39] = target: Gal(a1-3)Gal(b1-3)GlcNAc
How it was run: as §1

[40] = target: Gal(a1-3)Gal(b1-4)GlcNAc
How it was run: as §1

[41] = target: Gal(a1-3)Gal(b1-4)[Fuc(a1-3)]GalNAc
How it was run: as §1

[42] = target: Gal(a1-3)GlcNAc
How it was run: as §1

[43] = target: Gal(a1-3)[Gal(a1-4)]Gal(b1-4)GlcNAc
How it was run: as §1

[44] = target: Gal(a1-4)Gal(b1-4)Gal
How it was run: as §1

[45] = target: Gal(a1-4)Gal(b1-4)GalNAc
How it was run: as §1

B1: EcCDA (Encephalitazoon cuniculi), Q8SU65 (protein)
chain: MLLCLLYFTSSWCSGSDVPDVCTNSGMIAINFVDGPVRGVTDRILNTLDELGVKATFSFTVNQKAVGNVGQLYRRAVEEGHNVALRVDPSMDEGYQCLSQDALENNVDREIDTIDGLSGTEIRYAAVPICNGQVNSEMYNILTERGVLPVGYTFCPYDYDDPVGEFESMIEGSDPKHHSFIILMHDGQEADTSRLENMVKIGKDKGYRFVNMDECLQGYKGAPGDPELSLRGKGVESIGKGFLPFFLMMLVRLL
For B1, the “glycan array binding signal (z-score)” value [1] was -0.081, the “glycan array binding signal (z-score)” value [2] was -0.199 and the “glycan array binding signal (z-score)” value [3] was -0.254. The “glycan array binding signal (z-score)” value [4] was -0.294, the “glycan array binding signal (z-score)” value [5] was -0.394 and the “glycan array binding signal (z-score)” value [6] was -0.282. For the same binder, the “glycan array binding signal (z-score)” value [7] was -0.367, the “glycan array binding signal (z-score)” value [8] was -0.343 and the “glycan array binding signal (z-score)” value [9] was -0.242. For the same binder, the “glycan array binding signal (z-score)” value [10] was -0.358, the “glycan array binding signal (z-score)” value [11] was -0.32 and the “glycan array binding signal (z-score)” value [12] was 1.72. The “glycan array binding signal (z-score)” value [13] was -0.185, the “glycan array binding signal (z-score)” value [14] was 1.36 and the “glycan array binding signal (z-score)” value [15] was 0.694. The “glycan array binding signal (z-score)” value [16] was -0.206, the “glycan array binding signal (z-score)” value [17] was -0.284 and the “glycan array binding signal (z-score)” value [18] was 2.96. The “glycan array binding signal (z-score)” value [19] was -0.119, the “glycan array binding signal (z-score)” value [20] was -0.284 and the “glycan array binding signal (z-score)” value [21] was -0.277. The “glycan array binding signal (z-score)” value [22] was -0.271, the “glycan array binding signal (z-score)” value [23] was -0.096 and the “glycan array binding signal (z-score)” value [24] was 0.117. The “glycan array binding signal (z-score)” value [25] was -0.335, the “glycan array binding signal (z-score)” value [26] was -0.101 and the “glycan array binding signal (z-score)” value [27] was 0.178. The “glycan array binding signal (z-score)” value [28] was -0.207, the “glycan array binding signal (z-score)” value [29] was -0.055 and the “glycan array binding signal (z-score)” value [30] was 0.636. For the same binder, the “glycan array binding signal (z-score)” value [31] was -0.377, the “glycan array binding signal (z-score)” value [32] was -0.367 and the “glycan array binding signal (z-score)” value [33] was -0.214. For the same binder, the “glycan array binding signal (z-score)” value [34] was 0.247, the “glycan array binding signal (z-score)” value [35] was 0.209 and the “glycan array binding signal (z-score)” value [36] was -0.12. For the same binder, the “glycan array binding signal (z-score)” value [37] was -0.277, the “glycan array binding signal (z-score)” value [38] was -0.153 and the “glycan array binding signal (z-score)” value [39] was 1.21. For the same binder, the “glycan array binding signal (z-score)” value [40] was -0.232, the “glycan array binding signal (z-score)” value [41] was -0.284 and the “glycan array binding signal (z-score)” value [42] was -0.228. For the same binder, the “glycan array binding signal (z-score)” value [43] was -0.139, the “glycan array binding signal (z-score)” value [44] was 2.76 and the “glycan array binding signal (z-score)” value [45] was 1.35.
